About 60 (0.1%) of roughly 46,000 compounds were called active. Inconclusive results (about 3%) are left out. Calls follow the shape of the dose curve; as a rule, active = well fitted inhibition curve with a large enough effect; inconclusive = small, poorly fitted or top-dose-only effect; inactive = no such curve, though single readings can be large or run the other way. The list shows a part of the results.
Assay: Primary qHTS assay for Inhibitors of ovarian cancer metastasis using an organotypic tumor microenvironment (TME) model. Also: nearly all actives have a fitted effect of over 65% in size.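 As to activity change, negative = inhibition: plate controls were DMSO wells for no effect and tomatine positive control wells for full effect.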
Conditions: SKOV3ip1-GFP adhesion/invasion on 3D omental model, fluorescence; series mostly up to 45.8 µM; activity change, negative = inhibition: at the top concentration
In short: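 qHTS, 4-pt dose (0.36-46 umol/L); SKOV3ip1-GFP, 1,200 cells/well, no FBS; primary omental fibroblast/mesothelial co-culture 48 h pre-grown; 2 h RT + 16 h 37 C; PBS wash, 4% PFA; GFP count 488/509 nm.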

Activity change, negative = inhibition, inactive:
CCC(Sc1nnc(-c2ccc(OC)c(OC)c2)c(-c2ccc(OC)c(OC)c2)n1)C(=O)NC1CCCC1 (stereo not given) -4.55%
CCC(C(=O)Nc1ccc(C)c(Cl)c1)n1c(=O)c(-c2ccccc2NC(C)=O)nc2ccccc21 (stereo not given) 0.955%
Cc1cccc(C)c1NC(=O)c1sc(-n2nc(C)c(Cc3ccc4c(c3)OCO4)c2C)nc1C -3.49%
Cc1nc(-n2nc(C)c(CCC(C)C)c2C)sc1C(=O)Nc1cccc(Cl)c1 -21.5%
CCN(C(=O)CSc1nc2ccccc2nc1Cc1ccc(F)cc1)c1cccc(C)c1 42.6%
COc1cc(CNCCSc2nnnn2C)ccc1OCc1ccc(Cl)cc1Cl -19.1%
Cc1nccn1CC1CCc2c(c3ccccc3n2C)C1=O (stereo not given) 1.4%
Cc1ccc(NC(=O)Cn2nc3c(cc2=O)CCCC3)cc1Cl -17.8%
COc1ccc(NC(=O)C2CCC(CNS(=O)(=O)c3ccc(Br)s3)CC2)c(OC)c1 (stereo not given) -1.44%
CC(C)CC(C(=O)NCC1CCN(Cc2ccc(F)cc2)CC1)N1Cc2ccccc2C1=O (stereo not given) -7.87%
CC(=O)c1ccc(NC(=O)CCc2c(C)nn(-c3ccc4nnc(C)n4n3)c2C)cc1 -10%
CCc1ccc(NC(=O)Cn2cc(S(=O)(=O)c3ccc(F)cc3)c(=O)c3cc(OC)ccc32)cc1 42%
CC(C)Nc1nc2c(-c3cccc(Br)c3)nnn2c2ccccc12 21.7%
COC(=O)C1=C(C)N(C(C)C)C(=O)C1(NC(=O)c1ccc(C(C)(C)C)cc1)C(F)(F)F (stereo not given) 7.42%
Cc1ccccc1Cn1c(=O)n(CCC(=O)NCc2ccco2)c(=O)c2sccc21 7.47%
CCn1cc(C(=O)N2CCN(c3cc(Cl)ccc3C)CC2)c(=O)c2cc(S(=O)(=O)N3CCCCC3)ccc21 4.99%
O=C(NCCn1cc(SCc2ccc(F)cc2)c2ccccc21)c1cccs1 -12.9%
CCc1nc(-c2ccc(C)c(S(=O)(=O)N3CCN(c4ccc(C(C)=O)cc4)CC3)c2)no1 -2.87%
Cc1ccccc1C(=O)N1c2ncnn2C2(CCCCC2)[C@@H]2CCCC[C@@H]21 -11.8%
CCCc1cc(=O)[nH]c(Nc2ccc(OCC)cc2)n1 -0.796%
COc1ccccc1NC(=O)C1=C(C)Nc2nc(-c3ccco3)nn2C1c1ccccc1F (stereo not given) -1.79%
CC(=O)NC[C@H]1CN(c2ccc(N3CCOCC3)c(F)c2)C(=O)O1 32.6%
Cc1ccc(NC(=O)CSc2nc(-c3ccco3)nc3cc(=O)[nH]n23)cc1 5.16%
COc1cccc(CCNC(=O)c2cnc3sc(N4CCOCC4)nn3c2=O)c1 1.65%
Cc1ccc(Cn2c(C)c3cnn(CC(=O)NCCc4ccc(Cl)cc4)c(=O)c3c2C)cc1 4.12%
Cc1cccc(S(=O)(=O)c2cn(C)c3cc(N4CCN(c5ccccc5)CC4)c(F)cc3c2=O)c1 2.31%
Cc1ccccc1C(=O)N1CCC(C(=O)Nc2ccc(F)cc2F)CC1 7.57%
CCCNC(=O)CN1CCN(c2ccc(NC(=O)c3ccc(OC)cc3)cc2C(=O)O)CC1 -9.1%
CCOC(=O)c1cccc(NC(=O)NC(C)c2c(-n3cccc3)sc3c2CCN(C)C3)c1 (stereo not given) 0.972%
Cc1nc(N2CCOCC2)c2c(C(=O)N3CCN(c4ccccc4)CC3)c(C)oc2n1 -6.31%
Cc1ccc(S(=O)(=O)c2nc(-c3ccccc3F)oc2NCc2ccccc2)cc1 9.25%
COc1ccc(CC(=O)N2CCc3cc(OC)c(OC)cc3C2COc2ccc3c(C)cc(=O)oc3c2)cc1OC (stereo not given) 7.06%
O=c1ccc2cc(S(=O)(=O)Nc3ccc(OC(F)(F)F)cc3)ccc2[nH]1 3.4%
Cc1ccc(CNC(=O)CSC2=Nc3ccccc3N=C(c3ccc(F)cc3)C2)cc1 5.21%
COC(=O)c1ccc(Cn2c(SCc3ccc(F)cc3)nc3ccncc32)cc1 -10%
COc1cccc(-c2noc(-c3cc(C(C)C)[nH]n3)n2)c1OC -4.41%
CCc1ccc(OCC(=O)Nc2ncn[nH]2)c(Br)c1 12.5%
CCOc1ccc(Nc2nn(-c3ccc(OC(F)(F)F)cc3)nc2C(C)=O)cc1 -2.87%
Cn1c2ccccc2c2cnn(CC(=O)Nc3ccccc3F)c(=O)c21 -5.14%
CC(C)CCn1c(=O)c2cccnc2n(CC(=O)Nc2ccccc2F)c1=O -4.25%
Cc1cc(C)cc(NC(=O)c2c(C)oc3nc(C)nc(N4CCCC4)c23)c1 -7.25%
O=C(Cn1c(=O)nc(-c2ccccc2F)c2cc(Cl)ccc21)NCCCc1ccccc1 9.89%
Cc1cccc(NC(=O)c2sc3nc(-c4cc5ccc(O)cc5oc4=O)[nH]c(=O)c3c2C)c1 -1.14%
O=C(COc1ccc(F)cc1)NCc1ccc2c(c1)CCN2C(=O)c1ccccc1 -5.21%
COc1ccccc1CNC(=O)CCNS(=O)(=O)c1ccc2c(c1)oc(=O)n2C -4%
COc1ccc(CNC(=O)C2CCCN(c3nnc(C)c4c(C)n(-c5ccc(C)cc5)nc34)C2)cc1 (stereo not given) -28.7%
COc1ccc2c(c1)c(CC(=O)OCC(=O)O)c(C)n2C(=O)c1ccc(Cl)cc1 -27.9%
Cc1cccc(CNC(=O)CCCN2C(=O)CCn3nc(-c4cccn4C)cc32)c1 0.658%
Cc1ccc(-n2nc(C)c3nc(CCC(=O)Nc4cccc(F)c4)c(=O)n(C)c32)cc1 6.17%
Clc1ccc(-c2noc(-c3cccnc3NCc3ccco3)n2)cc1 -5.04%
Cc1ccc(C)c(Cn2c3ccccc3c3cnn(CC(=O)NCCc4ccccc4)c(=O)c32)c1 -0.864%
Cc1ccc2c(c1)c1c3n2CCN(C(=O)c2cccc(C(F)(F)F)c2)C3CCC1 (stereo not given) -19.2%
COc1ccc(N2CCN(Cc3nnc(-c4ccc5c(c4)OCO5)o3)CC2)cc1 -1.82%
CCOc1ccccc1N(C)C(=O)c1c2c(nc3ccccc13)C(=O)N(C1CCCCC1)C2 -20%
Cc1ccc2c(=O)cc(C(=O)Nc3sc4c(c3C(=O)NCC3CCCO3)CCCC4)oc2c1 (stereo not given) -2.67%
COc1ccc(C2CC(=O)c3cc(-c4nc(-c5cccc(Cl)c5)cs4)c(=O)[nH]c3C2)cc1 (stereo not given) 18.8%
CCC(Sc1nc2ncccc2o1)C(=O)Nc1ccc(OC)c(OC)c1 (stereo not given) -8.32%
O=C(NCc1ccccc1)C(=O)Nc1c2c(nn1-c1ccccc1)CSC2 -1.31%
O=C(Cn1ncc2c3ccccc3n(Cc3ccc(F)cc3)c2c1=O)NCc1ccccn1 6.62%
Cc1ccc(SCC(=O)Nc2ccc3oc(-c4cccc(Cl)c4)nc3c2)cc1 -14.6%
COc1cc2c(cc1Cc1cccc(Cl)c1F)c(=O)c(C(=O)O)cn2[C@H](CO)C(C)C -13.3%
O=C(Nc1sc2c(c1C(=O)NCC1CCCO1)CCCC2)c1cc(=O)c2ccccc2o1 (stereo not given) 1.9%
O=C(CCn1c(=O)c2sccc2n(Cc2ccc(F)cc2Cl)c1=O)NCc1ccc2c(c1)OCO2 -2.39%
Cc1ccc(-c2nc3ccccc3o2)cc1NC(=O)Cc1ccc(Cl)cc1 9.09%
Cc1ccccc1CCNC(=O)c1ccc2c(c1)nc1n2CCCCC1 -27.9%
COc1ccc2cc3[n+](cc2c1OC)CCc1cc2c(cc1-3)OCO2 -7.21%
CCOC(=O)c1cccc(NC(=O)c2cnc3sc(N4CCOCC4)nn3c2=O)c1 -3.21%
Cc1cc(OCCCc2c(C(=O)O)n(Cc3cccnc3)c3c(-c4c(COc5ccc(N6CCN([S+](C)(=O)[O-])CC6)cc5)nn(C)c4C)cccc23)cc(C)c1Cl -2.51%
COC(=O)c1ccccc1NC(=O)CSc1nc(C)c(Cl)c(C)c1C#N 0.673%
CC(C)NC(=O)CN1C(=O)CCn2nc(-c3cn(C)c4ccccc34)cc21 -2.3%
Cc1ccccc1Cn1c(=O)n(-c2ccc(Cl)cc2)c(=O)c2c3c(sc21)CCCC3 -12.6%
CCC(C)NC(=O)c1sc2nc(C)c(C(=O)Nc3ccc(C)cc3C)c(-c3ccc(NC(C)=O)cc3)c2c1N (stereo not given) -1.39%

outcome, inactive:
COc1ccc(Cl)cc1NC(=O)Cn1c(=O)c2ccccc2n2nncc12
COc1cc(NC(=O)N2CCC(CN3CCCCCC3)CC2)cc(OC)c1OC
O=C(CSc1nc(-c2ccccc2)nc2cc(=O)[nH]n12)Nc1ccccc1
Cn1nnnc1SCCNCc1ccc(Cl)c(Cl)c1
COc1ccc(CNC(=O)c2ccc(NC(=O)N3CCSc4ncccc43)cc2)cc1
Cc1cc2c(cc3c(SCC(=O)Nc4ccc(Cl)cc4F)nncn32)o1
O=C(COc1ccccc1F)Nc1ccc(OCc2cc(=O)n3ccccc3n2)cc1
COCCCN1C(=O)c2oc3ccccc3c(=O)c2C12C(=O)N(C)c1ccccc12 (stereo not given)
CCOc1ccc(NC(=O)CCc2c(C)nc3c(-c4ccccc4)c(C)nn3c2C)cc1
COc1cccc(Cn2c(-c3nonc3NC(C)=O)nc3ccccc32)c1
CNC(=O)c1ccc2c(c1)N(Cc1ccccc1Cl)C(=O)c1ccccc1S2
CCOc1c(Cl)cc(C(=O)N(Cc2ccc(N(C)C)cc2)Cc2ccco2)cc1Cl
CCc1cccc(C)c1Nc1c(-c2ccsc2)nc2ncccn12
O=S(=O)(c1ccc(Cl)cc1Cl)n1ccnc1
CCC1CN(C(=O)N2CCC(C(=O)N3CCN(c4ccccc4F)CC3)CC2)c2ccccc2O1 (stereo not given)
Cc1cc(-c2ccc(C)c(S(=O)(=O)NCC3CCN(Cc4ccccc4F)CC3)c2)on1
Cc1ccc(C(c2c(O)cc(C)n(Cc3ccco3)c2=O)N2CCC(C)CC2)cc1 (stereo not given)
COc1ccc(OC)c(CNCc2c(C(=O)O)n(Cc3cccc(F)c3)c3cc(OC)ccc23)c1
Cc1cc(C)cc(NC(=O)C2CC(=O)N(c3ccccc3)C2)c1 (stereo not given)
Cc1ccc2c(c1)c1c(c(=O)n(Cc3ccccc3)c(=O)n1CC(=O)Nc1ccccc1F)n2C
Cc1ccc(-c2cc(C(=O)Oc3ccc(C#N)cc3)no2)cc1C
COc1ccc(Cn2c(C(=O)O)c(CNCc3ccc(SC)cc3)c3ccc(OC)cc32)cc1
CCc1ccc(NS(=O)(=O)c2[nH]ncc2C(=O)OC)cc1

Reference: PubChem BioAssay AID1963576 (National Center for Advancing Translational Sciences (NCATS), 2024)
